For one molecule, Kd results are on record in article PMC10155811 (2022).

What is called Kd is the equilibrium constant for the complex coming apart.

The target in assay [1] is Bub1 peptide with the Plk1 binding motif (Plk1 docking site T609) (human, UniProt O43683). In words: ITC; phosphorylated T609 (QLASpTPFHKW). (In ITC the heat of successive injections is recorded.)
Assay [2] concerns the target BubR1 peptide with the Plk1 binding motif (T620) (human, UniProt O60566). The assay can be described thus: ITC; phosphorylated T620 (RFVSpTPFHEW).

B1: Plk1 polo box domain ([…]) (domain or fragment)
chain: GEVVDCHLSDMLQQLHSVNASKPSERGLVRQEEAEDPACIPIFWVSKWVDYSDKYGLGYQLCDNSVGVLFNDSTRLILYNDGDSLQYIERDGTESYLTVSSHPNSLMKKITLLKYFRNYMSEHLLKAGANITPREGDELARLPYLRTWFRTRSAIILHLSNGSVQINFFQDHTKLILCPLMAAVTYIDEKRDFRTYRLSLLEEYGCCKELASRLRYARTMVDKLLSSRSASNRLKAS
For the molecule B1, the figures for the Kd in assay [1] and in assay [2] were 710 nM and 1110 nM, respectively.
